US20060121580A1

B1: bivalent scFv pyBi03-009C02 (scFv)
scFv: SMAEVQLVESGGGVVQPGRSLRLSCAASGFTFSDYPMNWVRQAPGKGLEWVSSISGSGGSTYYADSVKGRFTISRDNSKNTLYLQMNSLRAEDTAVYYCAKGLFMVTTYAFDYWGQGTLVTVLEGTGGSGGTGSGTGTSELTQSPSSLSASVGDRVTIT[about 80 residues left out here]FGQGTKVEIKRAAA
B2: bivalent scFv pyBi03-002C02 (scFv)
scFv: SMAEVQLVESGGGLVKPGGSLRLSCAASGFTFSGYSMSWVRQAPGKGLEWVGRTRNKANSYTTEYAASVKGRFTISRDDSKNSLYLQMNSLKTEDTAVYYCARYYSRSLKAFDYWGQGTLVTVLEGTGGSGGTGSGTGTSELTQSPSSLSASVGDRVTIT[about 80 residues left out here]FGQGTKVEIKRAAA
B3: bivalent scFv pyBi03-013C02 (scFv)
scFv: AMAEVQLVESGGGLVQPGGSLRLSCAASGFTFSDHYMDWVRQAPGKGLEWVGRTRNKANSYTTEYAASVKGRFTISRDDSKNSLYLQMNSLKTEDTAVYYCAKGLTPLYFDYWGQGTLVTVSSGGGGSGGGGSGGGGSEIELTQSPSSLSASVGDRVTIT[about 80 residues left out here]FGQGTKVEIKRAAA
B4: single-chain phage antibody SC03-014 (scFv)
scFv: AMAEVQLVESGGGLVQPGGSLRLSCAASGFTFSDHYMDWVRQAPGKGLEWVGRTRNKANSYTTEYAASVKGRFTISRDDSKNSLYLQMNSLKTEDTAVYYCARGISPFYFDYWGQGTLVTVSSGGGGSGGGGSGGGGSEIELTQSPSSLSASVGDRVTIT[about 80 residues left out here]FGQGTKVEIKRAAA
B5: bivalent scFv pyBi03-014C02 (scFv)
scFv: AMAEVQLVESGGGLVQPGGSLRLSCAASGFTFSDHYMDWVRQAPGKGLEWVGRTRNKANSYTTEYAASVKGRFTISRDDSKNSLYLQMNSLKTEDTAVYYCARGISPFYFDYWGQGTLVTVSSGGGGSGGGGSGGGGSEIELTQSPSSLSASVGDRVTIT[about 80 residues left out here]FGQGTKVEIKRAAA
B6: bivalent scFv pyBi03-001C02 (scFv)
scFv: SMAEVQLVESGGGLVKPGGSLRLSCAASGFTFSGYSMNWVRQAPGKGLEWVSSISGGSTYYADSRKGRFTISRDNSKNTLYLQMNNLRAEDTAVYYCARHRFRHVFDYWGQGTLVTVLEGTGGSGGTGSGTGTSELTQSPSSLSASVGDRVTIT[about 80 residues left out here]FGQGTKVEIKRAAA
B7: bivalent scFv pyBi03-007C02 (scFv)
scFv: SMAEVQLVESGGGLVQPRGSLRLSCAASGFTFSDYRMNWVRQAPGKGLERVAVISYDGSNKYYADSVKGRFTISRDNSKNTLYLQMNSLRAEDTAVYYCARGYWTSLTGFDYWGQGTLVTVLEGTGGSGGTGSGTGTSELTQSPSSLSASVGDRVTIT[about 80 residues left out here]FGQGTKVEIKRAAA
B8: SC03-052 (scFv)
scFv: AMAEVQLVQSGTEVKKPGESLKVSCKGSGYGFITYWIGWVRQMPGKGLEWMGIIYPGDSETRYSPSFQGQVTISADKSINTTYLQWSSLKASDTAIYYCAGGSGISTPMDVWGQGTTVTVSSGTGGSGGTGSGTGGS[about 100 residues left out here]FGQGTKVEIKRAA
B9: bivalent scFv pyBi03-010C02 (scFv)
scFv: SMAEVQLVESGGGVVQPGRSLRLSCATSGFTFSGYTMHWVRQAPGKGLEWVSSISGGSTYYADSRKGRFTISRDNSKNTLYLQMNNLRAEDTAVYYCAKGGGLPYLSFDYWGQGTLVTVLEGTGGSGGTGSGTGTSELTQSPSSLSASVGDRVTIT[about 80 residues left out here]FGQGTKVEIKRAAA
B10: bivalent scFv pyBi03-005C02 (scFv)
scFv: SMAEVQLVESGGGLIQPGGSLRLSCAASGFTFSGYTMSWVRQAPGQGLEWVSSISGGSTYYADSRKGRFTISRDNSKNTLYLQMNNLRAEDTAVYYCAKGGGRPYNPFDYWGQGTLVTVLEGTGGSGGTGSGTGTSELTQSPSSLSASVGDRVTIT[about 80 residues left out here]FGQGTKVEIKRAAA
B11: SC03-058 (scFv)
scFv: AMAEVQLVQSGGGLVQPGGSLKLSCAASGFTFSSYAMHWVRQAPGKGLEYVSGISSNGGSTYYANSVKGRFTISRDNSKNTLYLQMGSLRAEDMAVYYCARTTNRAFDIWGQGTMVTVSSGTGGSGGTGSGTGGS[about 100 residues left out here]FGQGTKVEIKRAA
B12: SC03-029 (scFv)
scFv: AMAEVQLVQSGGGLVQPGGSLRLSCAASGFTFSSYAMHWVRQAPGKGLEYVSGISSNGGSTYYANSVKGRFTISRDNSKNTLYLQMGSLRAEDMAVYYCARTTNRAFDIWGQGTMVTVSSGTGGSGGTGSGTGGS[about 100 residues left out here]FGAGTKLEIKRAA
B13: SC03-030 (scFv)
scFv: AMAEVQVVQSGGGLVQPGGSLKLSCAASGFTFSSYAMHWVRQAPGKGLEYVSGISSNGGSTYYANSVKGRFTISRDNSKNTLYLQMGSLRAEDMAVYYCARTTNRAFDIWGQGTMVTVSSGTGGSGGTGSGTGGS[about 100 residues left out here]FGQGTKVEIKRAA
B14: bivalent scFv pyBi03-008C02 (scFv)
scFv: SMAEVQLVESGGGVVQPGRSLRLSCAASGFTFSSYPMNWVRQAPGKGLEWVSAISGSGGSTYYADSVKGRFTISRDNSKNTLYLQMNSLRAEDTAVYYCARRVRPRRFDYWGQGTLVTVLEGTGGSGGTGSGTGTSELTQSPSSLSASVGDRVTIT[about 80 residues left out here]FGQGTKVEIKRAAA
B15: bivalent scFv pyBi03-003C02 (scFv)
scFv: SMAEVQLVESGGGLVQPGGSLRLSCAASGFTFSSYPMNWVRQAPGKGLEWVSAISGSGGSTYYADSVKGRFTISRDNSKNTLYLQMNSLRAEDTAVYYCARRSYFRRFDYWGQGTLVTVLEGTGGSGGTGSGTGTSELTQSPSSLSASVGDRVTIT[about 80 residues left out here]FGQGTKVEIKRAAA

Tests used:
[1] = target: SARS-CoV strain Frankfurt 1 (infectious virus); assay: cell-based or functional assay
[2] = target: SARS-CoV strain Frankfurt 2 (infectious virus); assay: cell-based or functional assay
[3] = target: fetal bovine serum (FBS), 10% preparation
[4] = target: SARS-CoV preparation (Frankfurt 1 strain); assay: phage ELISA on coated SARS-CoV preparation, plate 4 (no phage antibody 0.051)
[5] = target: SARS-CoV preparation (Frankfurt 1 strain); assay: phage ELISA on coated SARS-CoV preparation, plate 3 (no phage antibody 0.054)

| Binder | Neutralization titer for Frankfurt 1 strain (dilution factor) [1] | Neutralization titer for Frankfurt 2 strain (dilution factor) [2] | also measured |
| --- | --- | --- | --- |
| B1 | < 20 | < 20 | – |
| B2 | < 20 | < 20 | – |
| B3 | 160 | 80 | – |
| B4 | – | – | OD492 nm [3]: 0.089 OD492 nm |
| B5 | 80 | 80 | – |
| B6 | < 20 | < 20 | – |
| B7 | < 20 | < 20 | – |
| B8 | – | – | OD492 nm [4]: 0.355 OD492 nm |
| B9 | < 20 | < 20 | – |
| B10 | < 20 | < 20 | – |
| B11 | – | – | OD492 nm [4]: 0.355 OD492 nm |
| B12 | – | – | OD492 nm [4]: 0.629 OD492 nm |
| B13 | – | – | OD492 nm [5]: 1.15 OD492 nm |
| B14 | < 20 | < 20 | – |
| B15 | < 20 | < 20 | – |
